Results: the supplement of paper PMC4604168 (melanoma cell lines)
This is one part of the list. Most values come without repeats; read them as rough.

Columns and labels:
Assay in all cases: cell count relative to DMSO control; melanoma cells; higher = more viable cells
Details in all cases: library dose: low library concentration; 72 h
[1] = tested on: COLO792
[2] = tested on: COLO800
[3] = tested on: COLO829
[4] = tested on: G361
[5] = tested on: IPC-298
[6] = tested on: IST-MEL1
[7] = tested on: LB2518-MEL
[8] = tested on: LOXIMVI
[9] = tested on: MEL-HO
[10] = tested on: MZ2-MEL
[11] = tested on: MeWo
[12] = tested on: RPMI7951
[13] = tested on: RVH-421
[14] = tested on: SkMel28
[15] = tested on: SkMel30
[16] = tested on: SkMel5
[17] = tested on: UACC257
[18] = tested on: UACC62
[19] = tested on: WM115
[20] = tested on: WM1716
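Further: cell number obtained by counting DAPI-stained nuclei in high-throughput microscope images with image analysis software, screen run in 1,536-well plates.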

Compound	cell count [1] [%]	cell count [2] [%]	cell count [3] [%]	cell count [4] [%]	cell count [5] [%]	cell count [6] [%]	cell count [7] [%]	cell count [8] [%]	cell count [9] [%]	cell count [10] [%]	cell count [11] [%]	cell count [12] [%]	cell count [13] [%]	cell count [14] [%]	cell count [15] [%]	cell count [16] [%]	cell count [17] [%]	cell count [18] [%]	cell count [19] [%]	cell count [20] [%]
COc1cc(N2CCC(N3CCN(C)CC3)CC2)ccc1Nc1ncc(Cl)c(Nc2ccccc2S(=O)(=O)C(C)C)n1 + CCCCCCCCCCCC1=C(O)C(=O)C=C(O)C1=O [Embelin] (first compound 0.08 µM, partner dose 1.2 µM)	103	86.9	100	94	107	110	110	125	78.6	99.3	107	101	99.5	99.5	87.8	107	104	106	108	112
N#Cc1c(O)c2c(-c3ccc(-c4ccccc4O)cc3)csc2[nH]c1=O + Oc1cc(-c2nc(-c3ccccc3)[nH]c2-c2ccncc2)ccc1Cl [L779450] (first compound 2 µM, partner dose 0.2 µM)	109	81.5	97.2	101	80.6	96	97.7	116	83.7	81.9	92.9	93.1	87.7	71.5	78.6	104	97.6	68.5	83.3	114
COc1ccc2c(c1)CCC1C2CCC2(C)C(NCCCCCCN3C(=O)C=CC3=O)CCC12 (stereo not given) + O=c1cc(-c2cccc3c2Sc2ccccc2S3)oc(N2CCOCC2)c1 [KU55933] (first compound 0.4 µM, partner dose 1 µM)	91.3	129	104	111	97.4	101	128	95.1	101	101	90.9	87.7	137	79.7	123	97.7	122	86.7	104	92.6
COC(=O)c1sccc1S(=O)(=O)Nc1ccc(Nc2ccccc2)cc1OC + CC(C)CCN1c2nc(Nc3cc(F)c(O)c(F)c3)ncc2N(C)C(=O)C1C [BID1870] (first compound 1 µM, partner dose 0.2 µM)	93.9	89.4	104	84.5	89.5	99.4	101	116	102	92.1	90.6	113	85.3	68.6	75.4	91.8	83.9	96.5	99.9	92.4
COc1ccc(COc2ccc(Cc3cnc(N)nc3N)cc2OC)cc1 + O=S(=O)(c1ccccc1)N(CC(F)(F)F)c1ccc(C(O)(C(F)(F)F)C(F)(F)F)cc1 [T0901317] (first compound 1 µM, partner dose 1.4 µM)	120	92.3	102	99.9	93.5	105	97.4	98	95.9	95.8	93.1	111	94.9	89.8	109	92.3	79.5	93.9	90.5	91.9
N#Cc1c(O)c2c(-c3ccc(-c4ccccc4O)cc3)csc2[nH]c1=O + COc1cc2ncnc(Nc3ccc(Oc4ccccc4)cc3)c2cc1OC [SrcI1] (first compound 2 µM, partner dose 2 µM)	92.4	152	97.7	91	91.2	91.8	115	108	104	92.1	90.1	138	126	105	96.8	103	101	96	103	109
COc1ccc2c(c1)CCC1C2CCC2(C)C(NCCCCCCN3C(=O)C=CC3=O)CCC12 (stereo not given) + Oc1nc(-c2ccc(C(F)(F)F)cc2)nc2c1CSCC2 [XAV939] (first compound 0.4 µM, partner dose 2 µM)	79.5	123	102	89.5	102	111	98.7	69.1	101	93.2	104	60.7	86.1	84.5	126	88.1	86.5	92.1	94.7	54
CCN(CC)CCCCNc1ncc2cc(-c3cc(OC)cc(OC)c3)c(NC(=O)NC(C)(C)C)nc2n1 + Cc1cc([N+](=O)[O-])ccc1NS(=O)(=O)c1cc(Cl)ccc1Cl [FH535] (first compound 0.1 µM, partner dose 1 µM)	96	142	92.4	91.4	93.5	90.7	76.2	93.8	86.5	87.5	86.2	107	94.9	92.8	97.8	71.7	63.6	81.6	85.6	99.8
Oc1cc(-c2nc(-c3ccccc3)[nH]c2-c2ccncc2)ccc1Cl + O=c1cc(-c2cccc3c2Sc2ccccc2S3)oc(N2CCOCC2)c1 [KU55933] (first compound 0.2 µM, partner dose 1 µM)	107	93.6	107	86.3	90.5	101	108	137	109	82.2	100	108	84.8	82.1	98.5	110	101	68.2	70.9	105
